Hit rate of the full screen: of about 310,000 compounds, about 2,200 (0.71%) showed an effect of 50% or more. Effects have a minus sign here. The list shows a part of the results.
What follows are compounds tested against human ether-à-go-go-related gene (hERG) potassium channel (human, UniProt Q12809) (assay: primary screen, population patch clamp on CHO cells stably expressing hERG).
Sequence of human ether-à-go-go-related gene (hERG) potassium channel (Q12809 whole entry, looked up): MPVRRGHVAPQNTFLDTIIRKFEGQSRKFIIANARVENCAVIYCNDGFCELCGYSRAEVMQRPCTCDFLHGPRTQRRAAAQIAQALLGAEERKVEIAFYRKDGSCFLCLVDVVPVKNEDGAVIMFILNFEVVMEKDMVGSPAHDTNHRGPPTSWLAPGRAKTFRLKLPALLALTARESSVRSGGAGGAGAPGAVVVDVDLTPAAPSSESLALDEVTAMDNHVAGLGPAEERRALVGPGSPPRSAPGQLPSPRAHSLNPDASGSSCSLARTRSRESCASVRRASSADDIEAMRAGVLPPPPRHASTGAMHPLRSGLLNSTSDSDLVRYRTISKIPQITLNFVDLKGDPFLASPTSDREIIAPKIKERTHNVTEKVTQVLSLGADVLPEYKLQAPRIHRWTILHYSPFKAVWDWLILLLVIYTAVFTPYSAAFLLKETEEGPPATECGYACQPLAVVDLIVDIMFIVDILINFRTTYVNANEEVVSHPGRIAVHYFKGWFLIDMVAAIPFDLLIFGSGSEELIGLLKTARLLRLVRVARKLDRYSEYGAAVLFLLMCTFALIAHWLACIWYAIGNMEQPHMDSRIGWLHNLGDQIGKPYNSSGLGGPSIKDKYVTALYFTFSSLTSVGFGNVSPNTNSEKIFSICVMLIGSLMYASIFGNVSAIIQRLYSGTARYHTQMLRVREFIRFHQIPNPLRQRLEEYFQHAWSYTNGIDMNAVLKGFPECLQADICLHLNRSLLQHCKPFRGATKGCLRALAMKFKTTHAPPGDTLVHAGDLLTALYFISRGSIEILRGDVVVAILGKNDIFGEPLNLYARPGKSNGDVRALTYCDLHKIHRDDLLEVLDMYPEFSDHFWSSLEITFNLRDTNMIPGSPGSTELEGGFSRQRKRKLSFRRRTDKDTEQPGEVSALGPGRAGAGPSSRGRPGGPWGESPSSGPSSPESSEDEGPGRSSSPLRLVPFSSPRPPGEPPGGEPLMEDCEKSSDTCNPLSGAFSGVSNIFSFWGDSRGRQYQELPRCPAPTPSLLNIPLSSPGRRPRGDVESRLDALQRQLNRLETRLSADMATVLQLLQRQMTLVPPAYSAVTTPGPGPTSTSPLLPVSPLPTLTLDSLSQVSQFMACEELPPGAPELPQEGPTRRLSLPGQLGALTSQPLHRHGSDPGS

Going from `CCn1c(/C=C/c2ccccc2)nc2ccccc2c1=O` to `O=C1N/C(=N/Nc2ccccc2)S/C1=C\c1ccccc1`, the “hERG current change (%, negative = inhibition) at 1uM” value falls from 14.2% to 9.05%.

Going from `CC(C)(C)C(=O)NC1CCN(S(C)(=O)=O)CC1` to `CCOC(=O)N1CCC(NC(=O)CS(=O)(=O)Cc2nc(-c3cccc(Cl)c3)oc2C)CC1`, the “hERG current change (%, negative = inhibition) at 1uM” value rises from 7.82% to 15.6%.

Compared with `CCOC(=O)C1=NN(c2ccc(F)cc2)C2=NC(C)=C(C(=O)OC)C(c3cccs3)N12` (stereo not drawn), `COC(=O)C1=C(C(=O)OC)[N+]2=C3N(C(=O)NC2(C)C)[C@H](CO)C[C@@]32c3ccccc3N(Cc3ccccc3)[C@@H]12` is higher in “hERG current change (%, negative = inhibition) at 1uM” value: -1.06% for the first, 10.6% for the second.

Compared with `CCOc1ccc(-c2nc(-c3cccnc3)no2)cc1OCC`, `CCOc1ccc(-c2noc(CCC(=O)NCC3CCCO3)n2)cc1OC` (stereo not drawn) is higher in “hERG current change (%, negative = inhibition) at 1uM” value: 8.67% for the first, 16.3% for the second.

Compared with `CCCCCCCCNC(=O)c1cnccn1`, `CCCCOCCCNC(=O)c1ccc(OCC)cc1` is lower in “hERG current change (%, negative = inhibition) at 1uM” value: 3.79% for the first, -2.36% for the second.

First: Cc1ccc(NC(=O)CSc2nnc3n2CCCCC3)cc1
Second: CC(C)c1ccc(NC(=O)CSc2nc3ccccc3nc2N2CCCC2)cc1
The “hERG current change (%, negative = inhibition) at 1uM” value of the first is higher: 8.56% for the first, -0.429% for the second.

Compared with `Cc1ccc(/C=N/Nc2nncc(-c3ccccc3)n2)o1`, `COc1ccc(/C=N/NC(=O)c2nonc2C)cc1` is lower in “hERG current change (%, negative = inhibition) at 1uM” value: 11.9% for the first, 1.72% for the second.

Compared with `CN(C)/C(=N\O)c1c(Cl)cccc1Cl`, `COC(=O)c1nnn(-c2ccc(Cl)c(Cl)c2)c1C(=O)OC` is lower in “hERG current change (%, negative = inhibition) at 1uM” value: 9.68% for the first, 8.21% for the second.

Compared with `CC(=O)NC(=S)Nc1ccc(NC(=O)c2cccnc2Cl)cc1`, `CC(=O)Nc1ccc(C(=O)Nc2cc(C(F)(F)F)ccc2-n2cnc3ccccc32)cc1` is lower in “hERG current change (%, negative = inhibition) at 1uM” value: 9.84% for the first, 7.11% for the second.

Going from `Cc1ccc(CS(=O)(=O)c2cn(CC(=O)Nc3ccon3)c3ccccc23)cc1` to `CC(=O)NCCCc1nc2ccccc2n1Cc1ccc(C)cc1`, the “hERG current change (%, negative = inhibition) at 1uM” value falls from 14.4% to -3.48%.

Compared with `O=C(Nc1cccc(Cl)c1)N1CCN(C2c3ccccc3-c3ccccc32)CC1`, `CCC(=O)Nc1cccc(C2=NN(c3ccccc3)C(c3ccc(OC)cc3)C2)c1` (stereo not drawn) is lower in “hERG current change (%, negative = inhibition) at 1uM” value: 8.43% for the first, 6.78% for the second.

Compared with `Cn1c(SCC(=O)Nc2sc3c(c2C#N)CCC3)nnc1C1COc2ccccc2O1` (stereo not drawn), `COc1ccccc1-n1cnnc1SCC(=O)NC1CCCCC1` is higher in “hERG current change (%, negative = inhibition) at 1uM” value: 8.41% for the first, 16.7% for the second.

Compared with `COCCNC(=O)C(c1ccc(C)cc1)N(Cc1ccco1)C(=O)CCC(=O)Nc1ccccn1` (stereo not drawn), `Cc1ccc(C(=O)NNC(=O)c2ccccc2-n2cccc2)cc1` is lower in “hERG current change (%, negative = inhibition) at 1uM” value: 20% for the first, -2.92% for the second.

First: O=C(COc1ccccc1C(=O)N/N=C\c1ccc(O)c(O)c1)N/N=C/c1ccc(O)c(O)c1
Second: CCOc1ccc(Nc2cc(=O)oc3ccccc23)cc1
The “hERG current change (%, negative = inhibition) at 1uM” value of the first is lower: 2% for the first, 17.1% for the second.

`Cc1ccc(SCC(=O)N2CCc3ccccc32)cc1` and `Cc1nnc(SCC(=O)N2CCc3ccccc3C2)s1` are the same in “hERG current change (%, negative = inhibition) at 1uM” value: 12.4% for the first, 12.4% for the second.

Going from `COc1ccccc1NC(=O)Nc1ccc(S(=O)(=O)Nc2onc(C)c2C)cc1` to `CC(=O)Nc1ccc(S(=O)(=O)NCc2nc(-c3cccc(C)c3)no2)cc1`, the “hERG current change (%, negative = inhibition) at 1uM” value rises from 10.4% to 14.3%.

Compared with `O=C(CSc1ncnc2nc[nH]c12)Nc1ccc(Br)cc1Cl`, `CCn1cc(/C=C/C(=O)Nc2ccc(C)cc2Br)cn1` is lower in “hERG current change (%, negative = inhibition) at 1uM” value: 8.12% for the first, -1.03% for the second.

Going from `FC(F)(F)c1cccc(Cc2noc(CN3CCCC3)n2)c1` to `O=S1(=O)CCOCCCN1Cc1cccc(C(F)(F)F)c1`, the “hERG current change (%, negative = inhibition) at 1uM” value falls from 15.3% to 10.4%.

First: C=CCOC(=O)CSCC(NC(=O)OC(C)(C)C)C(=O)OCC (stereo not drawn)
Second: CC(C)(C)OC(=O)NCCCC1=CC2=CC(=O)C(C)(O)C(=O)C2=CO1 (stereo not drawn)
The “hERG current change (%, negative = inhibition) at 1uM” value of the first is higher: 12.4% for the first, 10.5% for the second.

Compared with `CCOC(=O)C1CCN(C(=O)COC(=O)c2nn(C)c(=O)c3ccccc23)CC1`, `COc1ccc(C2CC(c3cccs3)=NN2C(=O)COC(=O)C2CCCCC2)cc1OC` (stereo not drawn) is lower in “hERG current change (%, negative = inhibition) at 1uM” value: 5.06% for the first, -6.12% for the second.

Going from `C=CCOc1c(Br)cc(/C=N/NC(=O)Cc2ccc(C(F)(F)F)cc2[N+](=O)[O-])cc1OC` to `O=C(OCn1ncc(Cl)c(Cl)c1=O)c1cccc(C(F)(F)F)c1`, the “hERG current change (%, negative = inhibition) at 1uM” value falls from 15.4% to 3.1%.

Compared with `O=c1c2ccccc2oc2ccc(Oc3ccccc3)cc12`, `CNC(C)C#Cc1ccc2oc3cccc(OC)c3c(=O)c2c1` (stereo not drawn) is lower in “hERG current change (%, negative = inhibition) at 1uM” value: 11.5% for the first, 1.28% for the second.

First: O=C(c1cccc(OCc2ccccc2)c1)N1CCOCC1
Second: Cc1ccc(N(CC(=O)Nc2ccccc2C(=O)N2CCOCC2)S(C)(=O)=O)cc1
The “hERG current change (%, negative = inhibition) at 1uM” value of the first is lower: 3.46% for the first, 10.9% for the second.

Going from `COCCN(CCOC)c1nc(-c2ccc(Cl)cc2)nc2ccccc12` to `O=c1[nH]nc(Cc2ccc(-c3ccc(Cl)cc3)o2)c2ccccc12`, the “hERG current change (%, negative = inhibition) at 1uM” value rises from 4.14% to 6.24%.

Going from `COc1ccc(CCNS(=O)(=O)c2ccc3oc(C(=O)O)c(C)c3c2)cc1OC` to `COc1ccccc1CCNC(=O)c1ccc(NC(=O)CC2SC(N3CCCCC3)=NC2=O)cc1` (stereo not drawn), the “hERG current change (%, negative = inhibition) at 1uM” value rises from 7.89% to 18.2%.

Going from `Cn1nnc2cc(C(=O)NC3CCCCC3)ccc21` to `Cc1cccc(C(C(=O)NC2CCCCC2)N(C(=O)c2csnn2)C2CC2)c1` (stereo not drawn), the “hERG current change (%, negative = inhibition) at 1uM” value rises from 2.12% to 13.5%.

Going from `NC(=[NH2+])SCC1=CCS(=O)(=O)C1.[Br-]` to `CC(=O)N1CCN(c2ccc(N)cc2)CC1`, the “hERG current change (%, negative = inhibition) at 1uM” value falls from 13.1% to 7.17%.

Compared with `O=C1Cc2cc(S(=O)(=O)N3CCN(c4ccccc4)CC3)ccc2N1`, `O=C(Nc1ccc(Cl)cc1)Nc1cc(S(=O)(=O)N2CCOCC2)ccc1N1CCCC1` is lower in “hERG current change (%, negative = inhibition) at 1uM” value: 13.5% for the first, 1.7% for the second.

Going from `CCOC(=O)c1c(NC(=O)CSc2nnnn2C)sc(C(=O)N(C)C)c1C` to `CCOC(=O)c1c(C)cccc1OCC(N)=O`, the “hERG current change (%, negative = inhibition) at 1uM” value rises from 10.7% to 12.8%.

First: Cc1ccccc1C(=O)N1CCN(c2ccc(NC(=O)c3ccc4c(c3)OCCO4)cc2)CC1
Second: Cc1ccc(C)c(N2CCN(C(=O)c3ccc(NC4=NC5CS(=O)(=O)CC5S4)cc3)CC2)c1 (stereo not drawn)
The “hERG current change (%, negative = inhibition) at 1uM” value of the first is higher: 10.3% for the first, 3.63% for the second.

First: CCC1Sc2ccc(S(=O)(=O)CCC(=O)Nc3ccccc3Br)cc2NC1=O (stereo not drawn)
Second: NS(=O)(=O)c1ccc(S(=O)(=O)N(Cc2ccccc2F)CC2CCCO2)cc1 (stereo not drawn)
The “hERG current change (%, negative = inhibition) at 1uM” value of the first is lower: 3.16% for the first, 9.41% for the second.

Going from `CC1(OC(=O)C2CCCC2)C(=O)C=C2C=C(c3ccsc3)N(CCc3c[nH]c4ccccc34)C=C2C1=O` (stereo not drawn) to `Cc1ccc(C2CC(=O)NC(SCC(=O)OCc3ccccc3)=C2C#N)o1` (stereo not drawn), the “hERG current change (%, negative = inhibition) at 1uM” value rises from 3.44% to 8.54%.

Compared with `O=C(CCc1ccc(Oc2cc([N+](=O)[O-])cc([N+](=O)[O-])c2)cc1)N1CCCCC1`, `COc1cc(OC)cc(C(=O)N2CCN(C(=O)c3cccc(F)c3)CC2)c1` is higher in “hERG current change (%, negative = inhibition) at 1uM” value: 7.53% for the first, 8.54% for the second.

Going from `S=C1NCCOCCNC(=S)NCCOCCOCCN1` to `CCn1c(SCC(=O)N2CCOCC2)nnc1-c1cccs1`, the “hERG current change (%, negative = inhibition) at 1uM” value falls from 18.9% to 6.02%.

Compared with `Br.O=C(Cn1c(NCCO)nc2ccccc21)c1ccc(Cl)cc1`, `Cn1c(NCc2ccccc2O)nc2ccccc21` is higher in “hERG current change (%, negative = inhibition) at 1uM” value: 4.49% for the first, 7.18% for the second.

Compared with `CC1(C(=O)Nc2nc3ccc(S(C)(=O)=O)cc3s2)CC1(Cl)Cl` (stereo not drawn), `CCOc1ccc(S(=O)(=O)Nc2nc3ccccc3nc2N2CCN(C)CC2)cc1` is lower in “hERG current change (%, negative = inhibition) at 1uM” value: 13.2% for the first, 2.45% for the second.

Going from `O=C(O)CCC(=O)Nc1ccc(C(=O)OCC(=O)c2ccc(Cl)cc2)cc1` to `N#CC(C#N)=C/C=C(\Nc1ccc(Cl)cc1)c1ccc(Cl)cc1`, the “hERG current change (%, negative = inhibition) at 1uM” value falls from 13.6% to 0.712%.

Going from `c1ccc(-n2ncc3c(NCc4cccnc4)ncnc32)cc1` to `CC(C)(C)n1nnnc1C(c1cccnc1)N(Cc1ccccc1)Cc1ccco1` (stereo not drawn), the “hERG current change (%, negative = inhibition) at 1uM” value rises from -8.45% to 1.71%.

First: COc1ccc(-c2ccnc3nc(/N=C/N(C)C)nn23)cc1
Second: COc1ccc(Cl)cc1-c1nc(-c2ccc(Br)o2)no1
The “hERG current change (%, negative = inhibition) at 1uM” value of the first is higher: 18.2% for the first, 11% for the second.

First: Cc1ccc(N=Nc2c(O)[nH]c3ccc(F)cc23)cc1
Second: Cc1ccccc1Nc1nnc(SCC(=O)c2ccc(O)cc2O)s1
The “hERG current change (%, negative = inhibition) at 1uM” value of the first is higher: 13.1% for the first, 10.3% for the second.

Going from `O=C(NCc1ccncc1)C(=O)NCC1OCCCN1S(=O)(=O)c1ccc(F)cc1` (stereo not drawn) to `O=C(CN1CCN(Cc2ccccc2F)C1=O)NCc1cccnc1`, the “hERG current change (%, negative = inhibition) at 1uM” value falls from 13.9% to 5.4%.

Compared with `CCCN1CCN(CCCNC(=O)CN2C(=O)c3cccnc3Oc3ccc(C)cc32)CC1`, `O=C1CC(CCC(=O)NC2CC2)c2ccccc2N1` (stereo not drawn) is lower in “hERG current change (%, negative = inhibition) at 1uM” value: 8.58% for the first, -6.9% for the second.

First: CCC12CN3CC(CC)(CN(C1)C3c1ccccc1Cl)C2O (stereo not drawn)
Second: Cc1csc(NC(=O)C2CCCCC2)n1
The “hERG current change (%, negative = inhibition) at 1uM” value of the first is lower: -0.4% for the first, 13% for the second.

Going from `C=CCNC(=S)NCC=C` to `c1ccc(N/N=C(\Cc2nc3ccccc3[nH]2)c2ccccc2)cc1`, the “hERG current change (%, negative = inhibition) at 1uM” value rises from 7.5% to 9.61%.

Compared with `CC(=NCC1CCCO1)c1c(O)n(C)c(=O)n(C)c1=O` (stereo not drawn), `CCOc1cc(C)c(-c2onc(C(F)(F)F)c2-c2csc(C)n2)c(O)c1` is higher in “hERG current change (%, negative = inhibition) at 1uM” value: 11.8% for the first, 15.3% for the second.

— publication PMC4336329 (PLoS ONE, 2015)
